In PubChem BioAssay AID2202238 (Ras Initiative Chemistry Research Team, Frederick National …, 2025):
The whole screen tested about 2,200 compounds, of which fewer than 10 were called active. Some of the results follow. Entries without a call are filed as inconclusive in the source.

Biological target: GTPase KRas (Homo sapiens) (UniProt P01116)
Assay: Fragment capture on engineered cysteines, share of protein labelled (AID 2202238)
Design: protein at 5 µM with 500 µM competing thiol for 1.5 h
Conditions: KRAS G12D cysteine mutants, disulfide tethering, MALDI-TOF labeling; stronger effect = higher value; H27C mutant labeling; fragment at 500 µM

Chain of UniProt P01116 (P01116 whole entry, looked up, the tested form may be a part): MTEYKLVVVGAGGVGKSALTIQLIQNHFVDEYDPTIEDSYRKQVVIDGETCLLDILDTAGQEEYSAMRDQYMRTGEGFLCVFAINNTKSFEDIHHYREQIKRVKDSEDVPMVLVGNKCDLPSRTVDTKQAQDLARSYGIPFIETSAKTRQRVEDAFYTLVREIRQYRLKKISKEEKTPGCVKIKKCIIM

Row | Structure (SMILES) | percent labeling
1 | O=C(CCS)NCc1nnc(-c2ccncc2F)s1 | 42.3%
2 | CCc1occ(C(F)(F)F)c1C(=O)NCCS | 33.3%
3 | Cc1nc2c(c(C(F)(F)F)n1)CC(C(=O)NCCS)CC2 (configuration not stated) | 40.1%
4 | CN(C(=O)CCS)C(Cc1ccc(F)cc1)c1ccn(C)n1 (configuration not stated) | 47%
5 | CS(=O)(=O)Cc1n[nH]c(CNC(=O)CCS)n1 | 26.1%
6 | O=C(CCS)Nc1cc(F)c(-n2ccnc2)c(F)c1 | 45.7%
7 | O=C(NCCS)c1cnn(-c2ccccc2F)c1 | 39.5%
8 | Cc1cc(CNC(=O)CCS)cc(N2CCCC2)n1 | 45%
9 | O=C(NCCS)c1cc(Br)n2c1CCC2 | 33.6%
10 | Cn1cc(Br)cc1C(=O)NCCS | 33.4%
11 | Cc1ccc(CN(C(=O)CCS)c2ccc3[nH]c(=O)[nH]c3c2)cc1 | 32.3%
12 | CN(C)C(=O)COc1ccccc1C(=O)NCCS | 32%
13 | CCn1nccc1CN(CCO)C(=O)CCS | 26.6%
14 | Cc1cccc(Nc2ccccc2C(=O)NCCS)c1C | 24.7%
15 | Cc1csc(-c2ccc(C(=O)NCCS)cc2)n1 | 26.2%
16 | O=C(CCS)Nc1cccc(CN2C(=O)CNC2=O)c1 | 49.6%
17 | NC(=O)Cc1cc(Br)c(-c2ccc(NC(=O)CCS)cc2)s1 | 40%
18 | CC(C)C(NC(=O)Cc1ccccc1)C(=O)NCCS (configuration not stated) | 31%
19 | O=C(Nc1sc2c(c1C(=O)NCCS)CCC2)c1ccco1 | 11.4%
20 | O=C(CCS)NCC1(O)CCC2(CC1)OCCO2 | 0%
21 | O=C(CCS)N1CCn2c(nc3c2CCCC3)C1 | 39%
22 | O=C(NCCS)c1cc(-n2cccc2)ccc1Cl | 20.4%
23 | O=C(CCS)Nc1ncc(Cc2cccc(Cl)c2)s1 | 37.9%
24 | CCc1nn(C)c(CC)c1CC(=O)NCCS | 28.6%

Row | Structure (SMILES) | percent labeling
25 | O=C(CCn1c(=O)oc2ccccc21)NCCS | 31%
26 | Cn1cc(-c2cncc(C(=O)NCCS)c2)cn1 | 55.6%
27 | O=C(CCS)N1CCCC(c2ccn[nH]2)C1 (configuration not stated) | 45.9%
28 | O=C(NCCS)C1(C(F)(F)F)CCN(c2ccccn2)C1 (configuration not stated) | 33.2%
29 | Cc1ccc(-c2cc(NC(=O)CCS)n[nH]2)cc1 | 30.4%
30 | O=C(CCS)Nc1ccccc1N1CCC(CO)CC1 | 36.1%
31 | Cc1ncsc1C(=O)NCCNC(=O)CCS | 27.7%
32 | Cc1cc(Br)cc2cc(C(C(C)C)N(C)C(=O)CCS)oc12 (configuration not stated) | 30.1%
33 | Cn1ccnc1Cn1cccc(NC(=O)CCS)c1=O | 38.2%
34 | Cc1cc(C)n(-c2ccc(C(=O)NCCS)cc2F)n1 | 37.7%
35 | O=C(NCCS)c1cnn2cccc(Br)c12 | 41.1%
36 | O=C(NCCS)c1ccc2c(ccn2Cc2ccccc2)c1 | 26.1%
37 | O=C(CCS)N1CCC(O)(c2cccc3cnccc23)CC1 | 57%
38 | O=C(CCS)N1CCN(c2cc(F)cc(F)c2)CC1 | 31.7%
39 | O=C(CCS)Nc1ccc2[nH]c(=O)sc2c1 | 37.5%
40 | COc1cc(C(=O)NCCS)cc2c1OC(C)C2 (configuration not stated) | 39.1%
41 | COc1cccc(-c2cc(C(=O)NCCS)[nH]n2)c1 | 29.5%
42 | O=C(NCCS)c1ccccc1O | 34.3%
43 | COc1ccc(-c2cc(C(=O)NCCS)sc2C)cc1 | 35.7%
44 | Cc1nc(N2CCN(C)CC2)ccc1NC(=O)CCS | 56.3%
45 | Cc1c(NC(=O)CCS)cccc1N1CCCCC1 | 23.4%
46 | O=C(NCCS)c1cn(-c2ccc(Cl)c(Cl)c2)cn1 | 20.2%
47 | Cc1cc(C)n(Cc2cccc(C(=O)NCCS)c2)n1 | 48.6%
48 | Cc1noc(C2COCCN2C2CN(C(=O)CCS)C2)n1 (configuration not stated) | 36.6%

Row | Structure (SMILES) | percent labeling
49 | CCOC(=O)c1sc(NC(=O)CCS)cc1C1CC1 | 37.1%
50 | O=C(NCCS)C1C2Cc3ccc(Br)cc3C21 (configuration not stated) | 21.8%
51 | COC1CC2(CCC(C(=O)NCCS)CC2)C1 (configuration not stated) | 33.1%
52 | O=C(NCCS)c1cnn(-c2cncc3nnnn23)c1 | 16.8%
53 | Cc1nnc(SCC2CCCN2C(=O)CCS)s1 (configuration not stated) | 40.1%
54 | Cn1nc(CNC(=O)CCS)cc1C(N)=O | 33.4%
55 | CC(C)(C)OCC(=O)NC(C)(C)C(=O)NCCS | 28.6%
56 | Cn1nc(CCNC(=O)CCS)nc1-c1ccccc1 | 33.3%
57 | O=C(CC1(c2ccc(C(F)(F)F)cc2)CC1)NCCS | 27.3%
58 | O=C(CCS)N1CC(c2cc3n(n2)CCCC3)C1 | 36.1%
59 | CN1CCCN(C(=O)CCS)c2ccccc21 | 22.7%
60 | CN1CCC(c2ccccc2)CC1C(=O)NCCS (configuration not stated) | 49%
61 | O=C(CCS)N(Cc1ccc(Cl)cc1)c1ccccc1 | 33%
62 | COc1ccc2c(c1)C1(CC1)CN(C(=O)CCS)C2 | 25.1%
63 | COCc1ccc(C(=O)NCCS)cc1OC | 32.9%
64 | O=C(NCCS)c1c[nH]c(=O)cc1C(F)(F)F | 27.8%
65 | CC(Cn1ncc2ccccc21)C(=O)NCCS (configuration not stated) | 30.9%
66 | O=C(NCCS)c1cc(Br)cc2[nH]c(=O)[nH]c12 | 46.9%
67 | CC(C)n1cc2cc(NC(=O)CCS)ccc2n1 | 35.4%
68 | O=C(CCS)NC1(c2ncon2)CCOCC1 | 7.9%
69 | O=C(CCS)N1CCC(O)(C(F)(F)F)CC1 | 27.3%
70 | Cc1cc(CN2CCN(C(=O)CCS)CC2)on1 | 34%
71 | O=C(NCCS)c1ccc(-c2noc(C(F)F)n2)cc1 | 22.7%
72 | Cc1nc2ccc(NC(=O)CCS)cc2c(=O)[nH]1 | 39.8%

Row | Structure (SMILES) | percent labeling
73 | Cc1cc(C)c(CNC(=O)CCS)c(=O)[nH]1 | 40.9%
74 | Cc1cc(=O)oc2cc(OCC(=O)NCCS)ccc12 | 22.8%
75 | CN(Cc1ccc2n[nH]nc2c1)C(=O)CCS | 41.2%
76 | O=C(Cc1coc2ccc3ccccc3c12)NCCS | 22.8%
77 | O=C(CCS)NCC1CC2(CC2)S(=O)(=O)N1 (configuration not stated) | 28.7%
78 | CN1CCCC(c2cccc(C(=O)NCCS)c2)C1 (configuration not stated) | 68.1%
79 | O=C(CCS)N1CCc2ccccc2C1c1nc2ccccc2[nH]1 (configuration not stated) | 36.9%
80 | O=C(Cc1ccc(C2CCCCC2)cc1)NCCS | 25.6%
81 | O=C(CCS)Nc1cccc(OCc2cccc(F)c2)c1 | 26.5%
82 | CC(C)(C)OC(=O)N1CC2(CCN2C(=O)CCS)C1 | 21.7%
83 | COc1ccc(S(C)(=O)=O)cc1C(=O)NCCS | 52.2%
84 | O=C(CCS)NCC(O)c1cc(Cl)c2c(c1)OCCO2 (configuration not stated) | 48.2%
85 | CC(=O)Nc1cc(NC(=O)CCS)ccc1F | 35%
86 | CC(C)(C)C1CCC(O)(CNC(=O)CCS)CC1 (configuration not stated) | 24.8%
87 | Cc1nn(C)c(-n2cncn2)c1C(=O)NCCS | 39.3%
88 | Cc1cccn2cc(-c3cccc(NC(=O)CCS)c3)nc12 | 30.6%
89 | O=C(CCNC(=O)c1cccs1)NCCS | 25.4%
90 | O=C(Cn1cnc2sccc2c1=O)NCCS | 33.9%
91 | CCn1cnnc1-c1ccc(C(=O)NCCS)cc1 | 39.9%
92 | CN(Cc1ccccc1Oc1ccc(Cl)c(Cl)c1)C(=O)CCS | 27.4%
93 | O=C(NCCS)C1CCCCN1C1CCCC1 (configuration not stated) | 37.5%
94 | CC1(C)C=Cc2cccc(NC(=O)CCS)c2O1 | 33.6%
95 | O=C(CCS)NCC1CCN(c2ccncc2)CC1 | 49.3%
96 | CN(c1ccccc1)c1nc(C(=O)NCCS)cs1 | 31.4%

Row | Structure (SMILES) | percent labeling
97 | O=C(CCS)NCCN1CCN(C(=O)C2CCC2)CC1 | 36.4%
98 | Cc1cc(NC(=O)CCS)nn1-c1cccc(Cl)c1 | 37.4%
99 | COC1(c2cccc(C(=O)NCCS)c2)COC1 | 44.5%
100 | CC(F)(F)c1cncc(CNC(=O)CCS)c1 | 32.6%
101 | Cc1c(C(=O)NCCS)cnn1CCC(C)C | 39.2%
102 | O=C(CCS)N(Cc1ccccc1)Cc1ccccc1 | 28.9%
103 | Cn1c(=O)n(C)c2cc(N3CCCCC3)c(NC(=O)CCS)cc21 | 31.2%
104 | O=C(CCS)N(CCN1CCOCC1)c1ccccc1F | 42%
105 | CC(C)CCc1cc(NC(=O)CCS)n[nH]1 | 44.1%
106 | Cc1cccn2cc(COc3ccccc3C(=O)NCCS)nc12 | 26.7%
107 | O=C(NCCS)c1cnc(-c2cnccn2)s1 | 37.6%
108 | CC1(C)C(=O)Nc2ccc(CNC(=O)CCS)cc21 | 42.1%
109 | O=C(CN1C(=O)CCOc2ccccc21)NCCS | 35.2%
110 | O=C(CCS)N1CCC(Cn2cncn2)CC1 | 37%
111 | O=C(CCS)NCCc1cc(O)cc(F)c1 | 39.9%
112 | Cc1nnnn1C(Cc1ccc(F)cc1)C(=O)NCCS (configuration not stated) | 41.3%
113 | CN(C)Cc1nc2ccc(NC(=O)CCS)cc2[nH]1 | 47.6%
114 | Cc1nc(C(F)(F)F)ccc1C(=O)NCCS | 29.6%
115 | O=C(NCCS)c1ccn(C2CCOCC2)n1 | 38.6%
116 | O=C(NCCS)c1cccc(-n2[nH]c(=O)ccc2=O)c1 | 20.3%
117 | Cc1cccc2c(=O)n(CCC(=O)NCCS)cnc12 | 38.8%
118 | O=C(CCN1C(=O)COc2ccccc21)NCCS | 27.8%
119 | CC(C)(C)OC(=O)N1CCC2(CCN(C(=O)CCS)CC2)CC1 | 33.4%
120 | CN(C)C(C(=O)NCCS)c1ccccc1 (configuration not stated) | 38.8%

Row | Structure (SMILES) | percent labeling
121 | O=C(NCCS)c1cc(C2CCOCC2)[nH]n1 | 43.4%
122 | CCOC(=O)c1[nH]ncc1C1CCCN(C(=O)CCS)C1 (configuration not stated) | 47.4%
123 | O=C(CCS)Nc1ccccc1N1CC2CCC1C2 (configuration not stated) | 30.9%
124 | CC(c1cc(Cl)ccc1Cl)n1nccc1NC(=O)CCS (configuration not stated) | 27.7%
125 | CNC(=O)N1CCC(NC(=O)CCS)CC1 | 25.8%
126 | O=C(CCS)NC1CCN(C2CCOC2=O)CC1 (configuration not stated) | 29%
127 | O=C(CCS)NC1CCN(Cc2ccc(Cl)cc2)CC1 | 52.8%
128 | O=C(NCCS)c1nc2ccccn2c1Br | 36.9%
129 | O=C(CCS)NCCCN(C1CC1)S(=O)(=O)c1cccc(F)c1 | 34.4%
130 | O=C(CCS)NCc1cc(Br)cc(Cl)n1 | 47.3%
131 | Cc1ccn(-c2cccc(NC(=O)CCS)c2)n1 | 35.3%
132 | CC(C)(C)OC(=O)N1CCC(O)(C2CCN(C(=O)CCS)CC2)CC1 | 32.3%
133 | O=C(CCc1cnc2ccccc2c1)NCCS | 34.4%
134 | COc1ccc(OC)c(-c2cc(C(=O)NCCS)no2)c1 | 31.6%
135 | Cc1c(-c2ccccc2)oc2c(C(=O)NCCS)cccc2c1=O | 22%
136 | CC1Cn2nc(C(=O)NCCS)cc2C(=O)N1 (configuration not stated) | 45.1%
137 | O=C(CCCc1ncc(-c2ccccc2)o1)NCCS | 24.1%
138 | Cn1cc([C@@H]2OCC[C@H]2C(=O)NCCS)cn1 | 32.5%
139 | O=C(CCc1nnc2ccc(Cl)nn12)NCCS | 37.9%
140 | Cc1nc(COc2cccc(C(=O)NCCS)c2)no1 | 42.2%
141 | O=C(NCCS)c1cc2c(Br)cccc2cn1 | 45.1%
142 | Cc1ccc(NC(=O)C2(CNC(=O)CCS)CCCC2)cc1C | 29.4%
